Data taken from patent US20200085917A1 (UNIVERSITY OF PITTSBURGH OF THE COMMONWEALTH SYSTEM OF …, published 2020).

Experiments:
Test in all cases: GST pull-down, LC-MS/MS
[1] = molecular target: mt-Co2_IPI:IPI00131176.1 (mouse, UniProt P00405 1-227)
Method: (§1) Extracts were spun at 14,000 r.p.m. at 4° C., and clarified supernatants were incubated with glutathione 4B Sepharose beads (GE Healthcare) at 4° C. overnight. The glutathione beads were then washed extensively with ice-cold TNE buffer, and bound proteins were subjected to SDS-PAGE followed by immunoblotting analysis. For the samples subjected to mass spectrometry, glutathione bead-bound proteins from equal amounts (600 μg) of mitochondria were further washed with high stringency RIPA buffer following TNE buffer wash to decrease nonspecific interaction. Proteins were then eluted from the glutathione beads in SDS sample buffer, separated by SDS-PAGE and stained with Coomassie. Proteins in the gel were digested with trypsin and analyzed by mass spectrometry (LC-MS/MS) at the Taplin Biological Mass Spectrometry Facility (Harvard Medical School, Boston, Mass.).

[2] = molecular target: T1, Gbas_IPI:IPI00115827.1 (mouse, UniProt O55126 28-281)
T1 sequence (looked up): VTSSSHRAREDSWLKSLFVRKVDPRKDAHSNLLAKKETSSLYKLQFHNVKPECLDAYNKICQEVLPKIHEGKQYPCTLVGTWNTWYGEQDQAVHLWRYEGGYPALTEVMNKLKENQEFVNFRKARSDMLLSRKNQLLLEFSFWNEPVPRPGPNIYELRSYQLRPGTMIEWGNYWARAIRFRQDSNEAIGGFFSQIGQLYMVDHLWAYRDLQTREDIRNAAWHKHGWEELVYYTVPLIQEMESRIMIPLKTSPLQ
Method: as §1

[3] = molecular target: Hspa5_IPI:IPI00319992.1 (mouse, UniProt P20029 20-655)
Method: as §1

[4] = molecular target: T2, Sccpdh_IPI:IPI00153266.1 (mouse, UniProt Q8R127 2-429)
T2 sequence (looked up): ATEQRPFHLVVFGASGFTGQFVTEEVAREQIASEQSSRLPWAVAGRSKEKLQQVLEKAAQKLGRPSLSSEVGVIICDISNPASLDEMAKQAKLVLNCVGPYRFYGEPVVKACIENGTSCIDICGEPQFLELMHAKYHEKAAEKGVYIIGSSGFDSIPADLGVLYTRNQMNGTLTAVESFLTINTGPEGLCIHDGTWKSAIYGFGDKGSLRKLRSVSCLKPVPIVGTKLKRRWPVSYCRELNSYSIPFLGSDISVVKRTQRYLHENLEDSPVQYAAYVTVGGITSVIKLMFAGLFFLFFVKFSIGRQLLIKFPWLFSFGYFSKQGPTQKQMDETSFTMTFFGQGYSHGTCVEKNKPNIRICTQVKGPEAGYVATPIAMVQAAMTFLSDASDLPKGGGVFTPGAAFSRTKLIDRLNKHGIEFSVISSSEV
Method: as §1

[5] = molecular target: T3, Etfa_IPI:IPI00116753.4 (mouse, UniProt Q99LC5 20-333)
T3 sequence (looked up): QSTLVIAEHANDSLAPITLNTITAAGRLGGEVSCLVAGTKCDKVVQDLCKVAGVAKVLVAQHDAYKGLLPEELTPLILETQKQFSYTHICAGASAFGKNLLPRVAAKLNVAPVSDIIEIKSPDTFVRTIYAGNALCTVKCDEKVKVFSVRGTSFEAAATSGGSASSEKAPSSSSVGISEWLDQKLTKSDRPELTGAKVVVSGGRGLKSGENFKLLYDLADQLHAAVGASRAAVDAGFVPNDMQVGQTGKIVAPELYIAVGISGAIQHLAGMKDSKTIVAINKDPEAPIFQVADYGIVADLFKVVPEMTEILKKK
Method: as §1

[6] = molecular target: T4, Rdh14_IPI:IPI00112377.1 (mouse, UniProt Q9ERI6 1-334)
T4 sequence (looked up): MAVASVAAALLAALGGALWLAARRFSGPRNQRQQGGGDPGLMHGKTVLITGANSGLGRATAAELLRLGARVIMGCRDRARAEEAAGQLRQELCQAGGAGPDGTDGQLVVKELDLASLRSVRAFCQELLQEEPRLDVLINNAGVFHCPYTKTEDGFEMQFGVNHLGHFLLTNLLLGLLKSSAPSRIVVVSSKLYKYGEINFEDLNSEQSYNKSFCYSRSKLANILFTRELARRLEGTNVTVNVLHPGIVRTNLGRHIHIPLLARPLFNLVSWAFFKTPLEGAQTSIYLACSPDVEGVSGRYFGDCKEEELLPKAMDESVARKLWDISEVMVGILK
Method: as §1

[7] = molecular target: T5, Gstk1_IPI:IPI00121051.3 (mouse, UniProt Q9DCM2 1-226)
T5 sequence (looked up): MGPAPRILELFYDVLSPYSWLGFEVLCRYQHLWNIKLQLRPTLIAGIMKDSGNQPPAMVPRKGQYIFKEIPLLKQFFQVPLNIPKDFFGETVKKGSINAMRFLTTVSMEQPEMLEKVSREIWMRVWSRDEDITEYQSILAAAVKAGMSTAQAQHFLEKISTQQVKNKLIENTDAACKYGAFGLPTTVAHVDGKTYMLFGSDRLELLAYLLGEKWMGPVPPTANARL
Method: as §1

[8] = molecular target: T6, Syngr3_IPI:IPI00331579.1 (mouse, UniProt Q8R191 1-229)
T6 sequence (looked up): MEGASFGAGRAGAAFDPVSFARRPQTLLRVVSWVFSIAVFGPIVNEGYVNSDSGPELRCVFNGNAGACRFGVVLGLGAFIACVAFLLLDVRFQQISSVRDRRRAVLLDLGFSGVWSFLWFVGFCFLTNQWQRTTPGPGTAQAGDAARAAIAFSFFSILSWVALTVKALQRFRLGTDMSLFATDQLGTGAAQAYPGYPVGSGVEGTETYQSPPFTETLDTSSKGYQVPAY
Method: as §1

[9] = molecular target: T7, Mtx1_IPI:IPI00112327.1 (mouse, UniProt P47802 1-317)
T7 sequence (looked up): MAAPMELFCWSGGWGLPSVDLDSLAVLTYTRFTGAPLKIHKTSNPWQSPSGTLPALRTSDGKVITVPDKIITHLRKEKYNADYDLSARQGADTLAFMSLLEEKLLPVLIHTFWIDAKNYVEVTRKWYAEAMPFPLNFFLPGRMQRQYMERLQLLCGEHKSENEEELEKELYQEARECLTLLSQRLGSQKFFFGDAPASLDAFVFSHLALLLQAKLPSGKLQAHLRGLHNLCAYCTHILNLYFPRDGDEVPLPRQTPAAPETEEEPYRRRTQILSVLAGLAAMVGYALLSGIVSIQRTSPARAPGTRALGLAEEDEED
Method: as §1

Measured: binding result

Chain of UniProt P20029 (P20029 20-655 limits assumed): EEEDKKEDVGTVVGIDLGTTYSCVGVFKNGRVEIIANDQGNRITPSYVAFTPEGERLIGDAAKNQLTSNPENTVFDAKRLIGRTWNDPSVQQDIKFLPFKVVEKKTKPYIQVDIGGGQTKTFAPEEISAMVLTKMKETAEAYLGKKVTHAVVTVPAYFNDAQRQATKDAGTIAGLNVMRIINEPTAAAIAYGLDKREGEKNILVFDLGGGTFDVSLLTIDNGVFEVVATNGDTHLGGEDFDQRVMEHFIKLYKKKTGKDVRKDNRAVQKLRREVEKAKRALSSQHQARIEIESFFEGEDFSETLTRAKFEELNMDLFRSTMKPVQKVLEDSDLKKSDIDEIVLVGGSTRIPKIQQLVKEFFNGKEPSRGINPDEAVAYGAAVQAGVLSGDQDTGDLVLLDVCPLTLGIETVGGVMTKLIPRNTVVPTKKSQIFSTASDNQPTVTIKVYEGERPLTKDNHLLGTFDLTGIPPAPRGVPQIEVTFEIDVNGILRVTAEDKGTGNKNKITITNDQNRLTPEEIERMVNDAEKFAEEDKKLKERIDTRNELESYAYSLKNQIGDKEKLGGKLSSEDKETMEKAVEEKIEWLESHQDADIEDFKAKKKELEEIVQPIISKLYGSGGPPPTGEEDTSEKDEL
Chain of UniProt P00405 (P00405 whole entry): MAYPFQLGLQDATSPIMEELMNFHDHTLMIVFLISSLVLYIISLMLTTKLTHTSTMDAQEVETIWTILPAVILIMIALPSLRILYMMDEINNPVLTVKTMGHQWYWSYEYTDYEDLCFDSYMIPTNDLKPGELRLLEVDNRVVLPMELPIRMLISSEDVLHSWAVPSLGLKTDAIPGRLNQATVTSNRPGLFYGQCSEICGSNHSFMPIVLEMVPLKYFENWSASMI

B1: GST alone (other)
chain: not shown
notes: Negative control of the pull-downs; also called control GST
no binding: [1] | [2] | [3] | [4] | [5] | [6] | [7] | [8] | [9]
